# Measurements as given in PubChem BioAssay AID651820 (National Center for Advancing Translational Sciences (NCATS), 2012).
# “And” between values parts separate entries of the source, which are not always exact repeats. Equal values may be shown once. The campaign covered roughly 340,000 compounds. About 12,000 (3.5%) were called active. Inconclusive means that the source gave no clear call. Such entries were picked first, then a sample of the others. Calls follow the shape of the dose curve; as a rule, active = well fitted inhibition curve with a large enough effect; inconclusive = small, poorly fitted or top-dose-only effect, or another doubt; inactive = no such curve, though single readings can be large or run the other way. Potencies of inconclusive entries are doubtful fits and often do not repeat.
# Experiment: qHTS Assay for Inhibitors of Hepatitis C Virus (HCV)
# Settings: Huh7.5.1 HCVcc-Cre (HCVcc is cell-culture hepatitis C virus) infection, luciferase reporter, 44 h; series mostly up to 41.8 µM
# Procedure, shortened: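 Cells (1,000/well) were plated 4 h before compound, then infected with HCVcc-Cre virus (~0.5 moi). After 44 h further culture, infection was read as luciferase luminescence following a 15 min substrate incubation at room temperature.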
# Potency is read from the fitted curve at half-maximal effect; tags tell the direction and shape of the fitted curve.
row,Structure (SMILES),Potency
1,COc1ccc(CCn2c(N)cc(=O)[nH]c2=S)cc1OC,"inconclusive: 35.5 µM [inhibitor, partial curve]"
2,COc1ccc([N+](=O)[O-])cc1N(CC(O)CN(C)C)S(=O)(=O)c1ccc(C)cc1 (stereo unspecified),"inconclusive: 5.62 µM [inhibitor, partial curve]"
3,O=C(COC(=O)CSc1ccccc1)Nc1ccc(F)cc1F,inactive
4,CCCOc1ccc(C(=O)N2CCN(Cc3ccc4c(c3)OCO4)CC2)cc1,"inconclusive: 3.16 µM [inhibitor, full curve]"
5,Oc1ccc(Cl)c2cccnc12,"inconclusive: 31.6 µM [inhibitor, single point]"
6,CCC1CCCCN1Cc1nc2c(c(=O)n(C)c(=O)n2C)n1CCC(C)C (stereo unspecified),"inconclusive: 3.16 µM [inhibitor, single point]"
7,COc1ccc(CCC(=O)NNC(=O)Nc2cccc(Cl)c2)cc1,inactive
8,COc1ccc2c(=O)c3c(=O)n(Cc4ccco4)c(-c4cc(OC)c(OC)c(OC)c4)nc3oc2c1,inactive
9,CCOc1ccc(-c2nnc3sc(-c4ccccc4OC)nn23)cc1,inactive
10,COc1ccc(-n2c(SC(C)C(=O)Nc3ncc(Cl)cc3Cl)nc3ccccc32)cc1 (stereo unspecified),"inconclusive: 3.55 µM [inhibitor, partial curve] and inconclusive: 1.12 µM [inhibitor, full curve]"
11,Fc1ccc2c(c1)[C@H]1OCC[C@H]1[C@@H](c1ccco1)N2,inactive
12,CCN(CC)c1ccc(Nc2cc3n(c(=O)n2)CCc2cc(OC)c(OC)cc2-3)cc1,"inconclusive: 15.8 µM [inhibitor, single point]"
13,CC(C)(C)C(=O)O/N=C(\N)c1ccc([N+](=O)[O-])s1,"inconclusive: 14.1 µM [inhibitor, single point]"
14,Cc1cc(Sc2nc(N)ncc2[N+](=O)[O-])ncn1,"inconclusive: 31.6 µM [inhibitor, single point]"
15,CSc1ccc(NC(=O)Nc2cccn(Cc3ccccc3)c2=O)cc1,active: 3.55 µM
16,CCOc1ccccc1-c1noc(CCCC(=O)NC2CCCCC2)n1,"inconclusive: 10 µM [inhibitor, partial curve]"
17,CC[n+]1c(/C=C/c2cc([N+](=O)[O-])ccc2O)ccc2ccccc21,"inconclusive: 22.4 µM [inhibitor, single point]"
18,O=C(COc1cc(Cl)c(Cl)cc1Cl)Nc1ccc([N+](=O)[O-])cc1Cl,inactive
19,O=C(CCl)Nc1c(C(=O)Nc2ccc3c(c2)OCCO3)oc2ccccc12,"inconclusive: 31.6 µM [inhibitor, single point]"
20,CCN(CC)CC(=O)N1c2ccccc2Sc2ccc(Cl)cc21,"inconclusive: 5.62 µM [inhibitor, partial curve]"
21,COc1ccc(-c2cc(C3CCN(Cc4ccc([N+](=O)[O-])cc4)CC3)[nH]n2)cc1,"inconclusive: 31.6 µM [inhibitor, single point]"
22,O=C(/C=C/c1ccccc1)NC(=S)NNC(=O)c1ccco1,"inconclusive: 10 µM [inhibitor, partial curve, poor fit]"
23,O=C(CSc1nnc2c(n1)[nH]c1ccccc12)NC1CCCCC1,"inconclusive: 4.47 µM [inhibitor, partial curve]"
24,COc1ccccc1C1CC(c2cccs2)=Nc2ccccc2S1 (stereo unspecified),"inconclusive: 14.1 µM [inhibitor, partial curve]"

row,Structure (SMILES),Potency
1,COC(=O)/C(=C1/Oc2ccc(C)cc2S1)C(F)(F)F,inactive
2,CCCc1nc2c(C)cc(C)cc2c(N)c1CC,"inconclusive: 10 µM [inhibitor, partial curve]"
3,OCCC1CN(Cc2nc(-c3ccc(F)cc3)cs2)CCN1CCc1ccccc1 (stereo unspecified),"inconclusive: 31.6 µM [inhibitor, single point]"
4,O=C(CSCc1ccc(Cl)cc1)N1CCCCC1,"inconclusive: 5.62 µM [inhibitor, single point]"
5,CCc1nnc(NC(=O)c2ccc(S(=O)(=O)N(C)Cc3ccccc3)cc2)o1,"inconclusive: 22.4 µM [inhibitor, single point]"
6,Nc1nnc(SCc2ccc(Cl)cc2)s1,inactive
7,CCCN(Cc1nnc(-c2ccccc2Cl)o1)C(=O)c1ccc(C)c(S(=O)(=O)N2CCOCC2)c1,inactive
8,Cc1ccc(Cn2c(C3CCCN3c3nc(-c4ccc(F)cc4)cs3)nc3cc(C(=O)NCCCO)ccc32)cc1 (stereo unspecified),"inconclusive: 2.82 µM [inhibitor, full curve]"
9,C/C(=N\N1CCN(Cc2ccc(Cl)cc2)CC1)c1ccc([N+](=O)[O-])cc1,active: 11.2 µM
10,COC(=O)c1c(C)oc(C)c1S(=O)(=O)N1CCCCC1,inactive
11,CCC(=O)Nc1cccc(-n2nnnc2SCC(=O)N2CCCCC2)c1,"inconclusive: 3.16 µM [inhibitor, partial curve]"
12,CCc1ccc2[nH]c3nc(N/N=C/c4ccc(O)cc4O)nnc3c2c1,"inconclusive: 11.2 µM [inhibitor, partial curve]"
13,CCSc1nc(O)cc(=O)n1-c1ccc(OC)cc1,"inconclusive: 0.501 µM [inhibitor, partial curve, poor fit]"
14,CCc1nc(N2CCCCC2)c2oc3ccccc3c2n1,"inconclusive: 10 µM [inhibitor, partial curve]"
15,COCCCNC(=O)C1CCN(C(=O)c2cc3sccc3n2Cc2ccc(F)cc2)CC1,"inconclusive: 3.55 µM [inhibitor, single point]"
16,O=C(C1CC1)N1CCN(c2nc3ccccc3s2)CC1,inactive
17,C=CCNCCCOc1ccc(C(C)(C)c2ccccc2)cc1,"inconclusive: 25.1 µM [inhibitor, single point]"
18,COc1ccccc1Cc1noc(-c2cc(Cl)ccc2OC)n1,active: 7.08 µM
19,CCOc1cc(S(=O)(=O)Nc2cc(C)cc(C)c2)ccc1Cl,"inconclusive: 31.6 µM [inhibitor, single point]"
20,COCCSc1ccccc1C(=O)Nc1cc(C)cc(C)c1,"inconclusive: 31.6 µM [inhibitor, single point]"
21,CC1(C(=O)NC(=S)NNC(=O)c2ccncc2)CCCCC1,inactive
22,COc1ccc(N(CCCN2C(=O)c3cccc4cccc(c34)C2=O)C(=O)c2cccnc2)cc1,"inconclusive: 31.6 µM [inhibitor, single point]"
23,CCCCCCn1c(=O)[nH]c2nc3cc(N)c(C)cc3nc2c1=O,"inconclusive: 7.08 µM [inhibitor, partial curve]"
24,Cn1ccc(NC(=O)Nc2cccc(C(F)(F)F)c2)n1,inactive

row,Structure (SMILES),Potency
1,NS(=O)(=O)c1ccc(N/C=C/C(=O)c2ccc(Br)cc2)cc1,inactive
2,COc1ccccc1NC(=O)C1=C(C)N(c2ccccc2)C(=S)NC1c1cccc(C(F)(F)F)c1 (stereo unspecified),"inconclusive: 31.6 µM [inhibitor, single point]"
3,CC(C)CCNC(=O)COc1ccc(C(=O)c2ccccc2)cc1,"inconclusive: 25.1 µM [inhibitor, single point]"
4,CCOC(=O)c1c(C=O)c(C)n(Cc2ccccc2)c1C,"inconclusive: 11.2 µM [inhibitor, partial curve]"
5,CC(C(=O)O)n1nnc2ccccc21 (stereo unspecified),inactive
6,CN1C(=O)C(C)(C)c2cc(S(=O)(=O)N3CCCC(C(=O)NCc4ccc(Cl)cc4)C3)ccc21 (stereo unspecified),"inconclusive: 22.4 µM [inhibitor, single point]"
7,Cc1cccc(NC(=O)COC(=O)c2ccc(C)c(S(=O)(=O)N3CCCCC3)c2)c1,"inconclusive: 22.4 µM [inhibitor, single point]"
8,CSCCC(NC(=O)c1ccccc1)C(=O)N1CC=C(c2ccccc2)CC1 (stereo unspecified),"inconclusive: 22.4 µM [inhibitor, single point]"
9,Cc1ccc(C(C)C)c(OCCNC(=O)c2cncc(Br)c2)c1,inactive
10,Cc1ccc(S(=O)(=O)N(CC(=O)NCc2ccncc2)C2CCCCC2)cc1,inactive
11,CC(NC(=O)CN1C(=O)c2ccccc2C1=O)c1ccccc1 (stereo unspecified),inactive
12,CCC1CN(S(=O)(=O)c2cc(-c3cc(C)no3)ccc2OC)c2cc(C)ccc2O1 (stereo unspecified),"inconclusive: 14.1 µM [inhibitor, single point]"
13,CCN1C(=NCC2CC2)N[C@@H](c2cccc(C(F)(F)F)c2)C(C(=O)OC)=C1C,"inconclusive: 31.6 µM [inhibitor, single point]"
14,COc1ccc(NS(=O)(=O)c2cc(NC(=O)C3CCCO3)ccc2N2CCCCC2)cc1 (stereo unspecified),"inconclusive: 31.6 µM [inhibitor, single point]"
15,CC12CC(NC(=O)N1c1cccc(C(=O)N3CCN(c4ccccc4F)CC3)c1)c1ccccc1O2 (stereo unspecified),"inconclusive: 31.6 µM [inhibitor, single point]"
16,C=CCN(C(=O)c1csnn1)C(C(=O)NC(C)(C)C)c1ccncc1 (stereo unspecified),inactive
17,Clc1ncc(CN2CCN(c3ccccc3)CC2)s1,"inconclusive: 22.4 µM [inhibitor, single point]"
18,CC(C)(C)N1C(=O)c2ccc(C(=O)Nc3nccs3)cc2C1=O,inactive
19,CCc1ccccc1NC(=O)CN1CCN(C(=O)CNC(=O)Cc2cccc3ccccc23)CC1,active: 11.2 µM
20,CCc1ccc(NC(=O)CCS(=O)(=O)c2ccc3c(c2)CCN3C(C)=O)cc1,"inconclusive: 14.1 µM [inhibitor, single point]"
21,O=C(COc1ccc(Br)cc1Br)NNC(=O)c1cccs1,inactive
22,COc1cc(NC(=O)c2ccc(F)cc2)c(OC)cc1NC(=O)CN1CCCCC1,"inconclusive: 0.891 µM [inhibitor, partial curve, poor fit]"
23,CNC(=O)Oc1ccc2c(c1)[C@]1(C)CCN(C)C1N2C (stereo partly specified),inactive
